Laboratory results reported in PubChem BioAssay AID504333 (National Center for Advancing Translational Sciences (NCATS), 2011).
Where “and” joins values, the source holds several entries; their conditions need not be identical. Equal values may be shown once. Hit rate of the full screen: of about 360,000 compounds, about 16,000 (4.4%) were called active. Inconclusive means that the source gave no clear call. Such entries were picked first, then a sample of the others. The call rests on the fitted dose curve; in most records, active means well fitted inhibition curve with a large enough effect; inconclusive means small, poorly fitted or top-dose-only effect; inactive means no such curve, though single readings can be large or run the other way. Potencies of inconclusive entries are doubtful fits and often do not repeat.

The compounds below were run against Bromodomain adjacent to zinc finger domain protein 2B (Homo sapiens) (UniProt Q9UIF8) (assay: qHTS Assay for Inhibitors of BAZ2B). Conditions: AlphaScreen BAZ2B-H3K14Ac peptide displacement; activity change, negative = inhibition: at 114 µM (top of the series) unless noted.
UniProt Q9UIF8, sequence (Q9UIF8 whole entry, looked up, the tested form may be a part): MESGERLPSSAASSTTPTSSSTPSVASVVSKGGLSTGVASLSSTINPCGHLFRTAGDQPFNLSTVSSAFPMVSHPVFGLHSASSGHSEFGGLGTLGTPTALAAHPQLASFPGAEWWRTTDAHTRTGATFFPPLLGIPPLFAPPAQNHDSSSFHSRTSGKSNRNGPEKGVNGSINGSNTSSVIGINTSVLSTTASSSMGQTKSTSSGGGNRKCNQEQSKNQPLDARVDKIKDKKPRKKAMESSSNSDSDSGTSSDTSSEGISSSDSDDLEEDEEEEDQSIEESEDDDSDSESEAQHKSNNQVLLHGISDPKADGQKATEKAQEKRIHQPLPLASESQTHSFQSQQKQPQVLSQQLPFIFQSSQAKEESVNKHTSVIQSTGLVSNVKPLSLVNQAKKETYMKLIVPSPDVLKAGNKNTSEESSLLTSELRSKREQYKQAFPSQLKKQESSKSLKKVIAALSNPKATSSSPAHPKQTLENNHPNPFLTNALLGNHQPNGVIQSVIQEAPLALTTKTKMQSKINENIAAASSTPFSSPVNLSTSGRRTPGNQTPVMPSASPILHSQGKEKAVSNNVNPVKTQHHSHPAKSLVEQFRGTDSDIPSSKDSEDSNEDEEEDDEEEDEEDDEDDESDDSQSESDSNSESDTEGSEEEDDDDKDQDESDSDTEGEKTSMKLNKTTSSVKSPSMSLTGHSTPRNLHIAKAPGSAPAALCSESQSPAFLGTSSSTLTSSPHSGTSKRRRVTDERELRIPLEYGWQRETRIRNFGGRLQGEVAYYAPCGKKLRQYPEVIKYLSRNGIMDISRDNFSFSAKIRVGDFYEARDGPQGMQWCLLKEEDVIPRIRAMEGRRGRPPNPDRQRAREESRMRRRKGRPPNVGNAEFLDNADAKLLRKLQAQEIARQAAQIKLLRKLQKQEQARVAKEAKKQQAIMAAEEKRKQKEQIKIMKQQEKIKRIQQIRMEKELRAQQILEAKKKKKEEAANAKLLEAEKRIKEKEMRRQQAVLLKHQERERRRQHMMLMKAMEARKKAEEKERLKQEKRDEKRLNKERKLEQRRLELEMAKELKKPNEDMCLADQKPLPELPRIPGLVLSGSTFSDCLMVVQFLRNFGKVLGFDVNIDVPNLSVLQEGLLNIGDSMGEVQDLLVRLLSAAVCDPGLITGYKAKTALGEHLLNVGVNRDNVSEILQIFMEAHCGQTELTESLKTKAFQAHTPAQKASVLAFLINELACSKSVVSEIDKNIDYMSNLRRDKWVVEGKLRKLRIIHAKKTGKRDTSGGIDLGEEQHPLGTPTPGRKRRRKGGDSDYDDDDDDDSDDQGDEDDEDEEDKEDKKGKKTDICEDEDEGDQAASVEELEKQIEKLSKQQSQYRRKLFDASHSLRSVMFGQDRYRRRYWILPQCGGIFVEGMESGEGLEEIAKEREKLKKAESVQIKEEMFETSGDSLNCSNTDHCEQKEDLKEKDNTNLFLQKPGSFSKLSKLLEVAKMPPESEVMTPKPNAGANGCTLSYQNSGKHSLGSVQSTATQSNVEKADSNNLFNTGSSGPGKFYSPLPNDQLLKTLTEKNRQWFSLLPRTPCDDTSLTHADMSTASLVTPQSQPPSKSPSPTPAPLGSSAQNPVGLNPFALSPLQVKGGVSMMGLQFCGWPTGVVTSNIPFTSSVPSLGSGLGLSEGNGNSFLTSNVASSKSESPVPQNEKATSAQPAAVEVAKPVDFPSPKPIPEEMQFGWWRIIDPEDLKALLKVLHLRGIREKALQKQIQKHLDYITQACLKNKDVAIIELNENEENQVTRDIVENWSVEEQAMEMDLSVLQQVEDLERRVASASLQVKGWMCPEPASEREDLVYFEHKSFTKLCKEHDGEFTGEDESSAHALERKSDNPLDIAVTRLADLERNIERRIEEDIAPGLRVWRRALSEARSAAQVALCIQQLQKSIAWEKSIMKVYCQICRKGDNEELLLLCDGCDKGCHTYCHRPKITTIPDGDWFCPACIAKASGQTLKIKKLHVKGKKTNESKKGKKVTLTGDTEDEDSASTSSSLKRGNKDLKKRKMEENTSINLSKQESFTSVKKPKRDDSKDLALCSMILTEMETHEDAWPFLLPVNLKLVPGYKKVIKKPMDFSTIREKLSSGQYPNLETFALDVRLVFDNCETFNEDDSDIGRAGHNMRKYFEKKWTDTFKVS
Procedure, shortened: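 BAZ2B (50 nM) with biotin-H3(5-23)K14Ac peptide (50 nM) in PBS pH 7.4, 0.01% Tween-20, preformed 30 min, then compound 30 min at room temperature; top concentration 110uM. AlphaScreen streptavidin donor/nickel chelate acceptor beads (10 ug/mL final), 20 min dark, signal read.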
Further: nearly all actives have a fitted effect of over 60% in size.
On the % scale 0 is the no-effect control and ±100 the full control effect; potency means the concentration at half of the fitted maximal effect; tags describe the fitted curve by direction and shape.

SMILES | activity change, negative = inhibition | Potency
Cc1cccc2sc(NC(=O)C3CCCO3)nc12 (configuration not stated) | inactive: -2.84% | 
CC(=O)Nc1ccc(SCCCC(=O)c2ccccc2)cc1 | inactive: -20.3% | 
CSC1=C(C#N)C(=O)NC(c2ccccc2O)S1 (configuration not stated) |  | inconclusive: 79.4 µM [inhibitor, single point]
CN(Cc1ccccc1)c1nc(-c2ccc([N+](=O)[O-])cc2)nc2ccccc12 |  | inconclusive: 89.1 µM [inhibitor, single point]
CN(N)c1nc(-c2ccccc2)cc(-c2ccccc2)n1 |  | inconclusive: 79.4 µM [inhibitor, single point]
COc1ccc(Nc2nc3[nH]c(=O)cc(O)c3s2)cc1 |  | inconclusive: 89.1 µM [inhibitor, single point]
Cc1oc(C(=O)Nc2ccc(O)cc2)cc1COc1ccccc1 |  | inconclusive: 89.1 µM [inhibitor, single point]
O=C(c1ccc(Cl)c(S(=O)(=O)NCc2ccco2)c1)N1CCN(c2ccc(F)cc2)CC1 |  | inconclusive: 100 µM [inhibitor, single point]
Cc1ccc(Cl)cc1NC(=O)c1cc(NC(=O)CCCC(=O)O)ccc1N1CCCCC1 |  | inconclusive: 79.4 µM [inhibitor, single point]
CCCC[C@]12Cc3ccccc3C(O1)c1c(cc(-c3ccccc3)oc1=O)O2 |  | inconclusive: 15.8 µM [inhibitor, single point]
CCOC(=O)C1C(=O)NC(N2CCN(Cc3ccccc3)CC2)=NC1c1ccccc1 (configuration not stated) |  | inconclusive: 7.08 µM [inhibitor, single point]
C/C(=N\Nc1ccccn1)c1ccc2c(c1)OCO2 |  | inconclusive: 22.4 µM [inhibitor, full curve]
CCOc1ccccc1NC(=O)c1c(NCc2sccc2C)sc2c1CCCCC2 |  | inconclusive: 25.1 µM [inhibitor, partial curve]
CCC(CC)C(=O)c1c[nH]c(C(=O)N2CCN(c3ccccc3)CC2)c1 | inactive: 2.92% | 
CCOc1ccc(CCNC(=O)COC(=O)c2ccc(Cl)nc2)cc1OCC | inactive: 3.59% | 
Cc1cc(C(F)(F)F)n(-c2nc(C(=O)O)cs2)n1 | inactive: -17.1% | 
Cc1ccc(-c2nnn(CC(=O)N(CC(=O)NC3CCCCC3)c3ccccc3F)n2)o1 |  | inconclusive: 89.1 µM [inhibitor, single point]
Fc1ccccc1CN1CCN(c2ncccn2)CC1 |  | inconclusive: 100 µM [inhibitor, single point]
CC1CCCC(NC(=O)CN(C)CC(=O)Nc2ccc(F)cc2)C1C (configuration not stated) | inactive: 6.55% | 
O=S(=O)(O)Oc1c[nH]c2ccccc12 |  | active: 44.7 µM
COC(=O)[C@@]1(Cc2ccc(OC)cc2)[C@H]2c3cc(C(=O)N(C)C)n(Cc4ccc(OC(F)(F)F)cc4)c3C[C@H]2CN1C(=O)c1ccccc1 |  | inconclusive: 35.5 µM [inhibitor, full curve, poor fit]
Cc1ccc(-c2cc(C(F)F)n3ncc(C(=O)N4CCCc5ccccc54)c3n2)cc1 | inactive: 12.5% | 
Cc1nc2ccccc2c(=O)n1-c1ccc(NC(=O)C(F)(F)F)cc1 | inactive: -3.19% | 
CC(C)N1CCN(C2CSCCSC2)CC1CCO (configuration not stated) | inactive: -12.4% | 

SMILES | activity change, negative = inhibition | Potency
CC(=O)c1c(C)[nH]c(C(=O)OCC(=O)N2CC(C)OC(C)C2)c1C (configuration not stated) |  | inconclusive: 89.1 µM [inhibitor, single point]
COc1ccccc1OCCNc1ccc(S(=O)(=O)N2CCCC2)cn1 | inactive: 6.84% | 
Cc1ccc(NC(=O)N2CCCc3ccccc32)cc1 | inactive: 7.63% | 
CCOC(=O)c1cc(-c2ccc(OC)cc2)n[nH]1 | inactive: 0.66% | 
CCC(=O)NC(Nc1sc2c(c1C(=O)OC)CCC2)C(Cl)(Cl)Cl (configuration not stated) |  | inconclusive: 79.4 µM [inhibitor, single point]
Cc1cccc(-c2nc(S(=O)(=O)c3ccc(F)cc3)c(NCCCN3CCOCC3)o2)c1 |  | active: 70.8 µM
Cc1ccccc1-n1nc2c(c1NC(=O)c1cc3ccccc3oc1=O)CS(=O)C2 (configuration not stated) |  | inconclusive: 79.4 µM [inhibitor, single point]
CCOc1ccc(NC(=O)COc2ccc(C(=O)NCc3cccc(OC)c3)cc2OC)cc1 | inactive: 7.35% | 
CCOc1cc(-c2ccc(OC(=O)c3ccc(OC)cc3)c(OC)c2)cc(=O)c2c(C)oc(C)c12 |  | inconclusive: 25.1 µM [inhibitor, partial curve]
O=C(N/N=C/c1ccco1)c1ccccn1 |  | active: 56.2 µM
Cc1cccc(N=Nc2c(C)[nH]n(-c3ccccc3)c2=O)c1 |  | active: 3.16 µM
COc1cc2[nH]c(=S)n(NC(=O)c3ccccc3)c(=O)c2cc1OC |  | inconclusive: 35.5 µM [inhibitor, full curve]
CCCC(=O)Nc1nnc(-c2ccccc2)o1 |  | inconclusive: 89.1 µM [inhibitor, single point]
COCCn1c(SC(C)C(=O)Nc2ccc(Cl)cn2)nnc1-c1ccncc1 (configuration not stated) | inactive: -18.4% | 
Cc1ccc2nc(-c3ccncc3)c(Nc3ccccc3)n2c1 | inactive: -36.1% | 
CCOC(=O)c1cc(-c2ccc(F)cc2)n(CCC(=O)Nc2nc3ccc(OC)cc3s2)c1C |  | inconclusive: 28.2 µM [inhibitor, full curve]
COc1ccc(CN(C)CC(O)COC(c2ccccc2)c2ccccc2)c(OC)c1OC (configuration not stated) |  | inconclusive: 79.4 µM [inhibitor, single point]
CCc1ccc2c(COn3nnc4ccc(S(=O)(=O)N(C)C)cc43)cc(=O)oc2c1 | inactive: 15.3% | 
CCNC(=O)CSc1nnc(-c2ccccc2)n1-c1ccc(OCC)cc1 |  | inconclusive: 35.5 µM [inhibitor, single point]
CCOC(=S)SCc1cn2ccc(C)cc2n1 | inactive: -37.2% | 
Cn1c(=O)c(=O)n(C)c2cc(N3CCOCC3)c(NS(=O)(=O)c3ccc(Br)cc3)cc21 |  | inconclusive: 79.4 µM [inhibitor, partial curve]
CC(C)c1cccc(-c2ccc3c(c2)S(=O)(=O)c2cccc(C(=O)O)c2C3=O)c1 |  | inconclusive: 89.1 µM [inhibitor, single point]
Cc1ccc(C(=O)Nc2cccc([N+](=O)[O-])c2)cc1S(=O)(=O)Nc1ccc(C(=O)O)cc1 |  | inconclusive: 79.4 µM [inhibitor, partial curve]
CCN(CC(=O)Nc1ccccc1C(F)(F)F)C(=O)Cn1c(=O)cnc2ccccc21 | inactive: 0.612% | 

SMILES | activity change, negative = inhibition | Potency
CCOC(=O)c1c(C)[nH]c(N=Nc2ccccc2Cl)c1C |  | active: 8.91 µM
Cn1c(=O)c2sccc2n2c(CCCC(=O)NC3CCCCC3)nnc12 |  | inconclusive: 89.1 µM [inhibitor, single point]
COCCN1C(=O)CS/C1=C(/C#N)C(=O)NCc1ccco1 |  | inconclusive: 79.4 µM [inhibitor, single point]
COc1cccc(Oc2cnc(N)nc2-c2ccc(OC)cc2O)c1 |  | inconclusive: 89.1 µM [inhibitor, single point]
O=C(CN1CCCC1)Nc1nc(-c2ccc3c(c2)CCN3C(=O)c2ccccc2F)cs1 | inactive: -27.9% | 
O=C(C(NS(=O)(=O)c1cccs1)c1ccccc1)N1CCN(c2ccccc2)CC1 (configuration not stated) |  | inconclusive: 100 µM [inhibitor, single point]
Cc1ccc(-c2c(C(=O)N/N=C/c3cccs3)nnn2-c2nonc2N)cc1 |  | inconclusive: 79.4 µM [inhibitor, single point]
COC(=O)c1c(NC(=O)Cc2coc3ccc(C(C)C)cc23)sc2c1CCC2 |  | inconclusive: 3.55 µM [inhibitor, full curve]
N=C1/C(=C/c2cccn2CCOc2ccccc2)C(=O)N=C2SC=C(c3ccccc3)N12 | inactive: -11.4% | 
COc1cccc(C(=O)Nc2nc(-c3ccc4c(c3)OCO4)cs2)c1 |  | inconclusive: 79.4 µM [inhibitor, single point]
CC(C)Oc1ccc(S(=O)(=O)N2CCOCC2)cc1NC(=O)C(C)Oc1ccc(F)cc1 (configuration not stated) | inactive: 7.12% | 
CCn1nc(C)cc1C(=O)N1CCCC(C(=O)c2ccc(OC)cc2C)C1 (configuration not stated) | inactive: -9.73% | 
CC(=O)c1cccc(NS(=O)(=O)c2cc(-c3cnc(C4CC4)o3)ccc2C)c1 |  | inconclusive: 44.7 µM [inhibitor, partial curve] and inconclusive: 28.2 µM [inhibitor, single point]
Cc1cc(/C=C2\SC(=S)N(C)C2=O)c(C)n1-c1ccc(O)cc1 |  | inconclusive: 35.5 µM [inhibitor, partial curve]
O=c1oc2c3c(ccc2c2ccccc12)OCN(Cc1ccccc1Cl)C3 |  | inconclusive: 89.1 µM [inhibitor, partial curve, poor fit]
CC(C)(C)c1cc(CN2CCN(CCO)CC2)cc(C(C)(C)C)c1O |  | inconclusive: 79.4 µM [inhibitor, single point]
CCCn1c(=N)n(CC(=O)C(C)(C)C)c2ccccc21 |  | inconclusive: 89.1 µM [inhibitor, single point]
O=c1o[nH]c(-c2ccccc2)c1C=Nc1ccc(Cl)cc1 |  | inconclusive: 56.2 µM [inhibitor, partial curve]
COc1ccc(C2c3ccc(O)cc3Oc3ncn(Cc4ccco4)c(=N)c32)cc1OC (configuration not stated) |  | inconclusive: 79.4 µM [inhibitor, single point]
Cc1cc(O)c(C(=O)/C=C/c2ccc(Cl)cc2)c(=O)o1 | inactive: -17.5% | 
Cc1cc(C)cc(C(=O)N2CC(C)OC(C)C2)c1 (configuration not stated) |  | inconclusive: 10 µM [inhibitor, single point]
COc1cc(Cl)c(NS(=O)(=O)c2cc(-c3cc(C)no3)ccc2OC)c(OC)c1 |  | inconclusive: 70.8 µM [inhibitor, single point]
OCCNCc1cccc2ccccc12 | inactive: -29.9% | 
Cc1cccc(NC(=O)NCc2ccc3c(c2)cc(C)n3C)c1 |  | inconclusive: 56.2 µM [inhibitor, single point]
